# Laboratory results published in article PMC4336329 (PLoS ONE, 2015).
# Hit rate of the full screen: of about 310,000 compounds, about 14,000 (4.5%) showed an effect of 50% or more. Effects have a minus sign here. Some of the results follow.
# Target: human ether-à-go-go-related gene (hERG) potassium channel (human, UniProt Q12809)
# Assay: primary screen, population patch clamp on CHO cells stably expressing hERG
# 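Note: peak tail current of the secondary pulse compared with the same well before compound.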
# Chain of human ether-à-go-go-related gene (hERG) potassium channel (Q12809 whole entry, looked up): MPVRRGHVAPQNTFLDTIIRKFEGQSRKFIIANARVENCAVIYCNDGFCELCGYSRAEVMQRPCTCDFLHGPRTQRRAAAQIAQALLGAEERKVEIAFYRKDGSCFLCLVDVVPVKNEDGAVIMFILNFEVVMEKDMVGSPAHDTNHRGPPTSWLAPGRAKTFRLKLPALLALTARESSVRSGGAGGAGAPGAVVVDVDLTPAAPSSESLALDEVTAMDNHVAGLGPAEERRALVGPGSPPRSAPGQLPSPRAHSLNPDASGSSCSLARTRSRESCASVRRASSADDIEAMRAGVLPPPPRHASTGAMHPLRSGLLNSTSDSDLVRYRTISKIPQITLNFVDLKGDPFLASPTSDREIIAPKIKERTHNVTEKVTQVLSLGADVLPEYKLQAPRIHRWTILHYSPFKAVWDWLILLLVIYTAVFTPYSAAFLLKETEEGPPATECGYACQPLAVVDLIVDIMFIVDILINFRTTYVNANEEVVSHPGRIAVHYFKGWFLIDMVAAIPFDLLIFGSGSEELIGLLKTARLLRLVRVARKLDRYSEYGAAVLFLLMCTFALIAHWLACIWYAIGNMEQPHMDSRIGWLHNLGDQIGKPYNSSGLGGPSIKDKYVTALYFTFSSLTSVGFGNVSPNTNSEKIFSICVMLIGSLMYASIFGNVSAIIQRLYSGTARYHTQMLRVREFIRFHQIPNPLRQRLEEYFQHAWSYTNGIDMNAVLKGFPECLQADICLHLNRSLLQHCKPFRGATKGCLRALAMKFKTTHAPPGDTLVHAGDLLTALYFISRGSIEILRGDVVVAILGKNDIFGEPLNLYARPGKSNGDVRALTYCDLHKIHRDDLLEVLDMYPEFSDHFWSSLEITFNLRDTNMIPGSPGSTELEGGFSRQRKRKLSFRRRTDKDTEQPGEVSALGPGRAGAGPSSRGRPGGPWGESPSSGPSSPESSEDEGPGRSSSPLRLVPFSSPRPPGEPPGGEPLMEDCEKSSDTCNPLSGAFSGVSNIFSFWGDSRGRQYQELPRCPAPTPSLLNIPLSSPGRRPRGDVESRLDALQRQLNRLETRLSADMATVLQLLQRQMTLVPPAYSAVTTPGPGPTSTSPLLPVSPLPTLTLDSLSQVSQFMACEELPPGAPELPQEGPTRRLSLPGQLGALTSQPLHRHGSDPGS
row,SMILES,"hERG current change (%, negative = inhibition) at 10uM [%]"
1,CCOC(=O)C1=C(N)Oc2c(c(=O)oc3ccccc23)C12C(=O)N(C)c1ccccc12 (stereo not shown),-4.96
2,Cc1cc(C)c2c(=O)[nH]c(SCC(=O)NCc3ccccc3)nc2n1,2.76
3,CCOC(=O)C1CCCN(CC(O)COc2ccccc2C(C)=O)C1.Cl (stereo not shown),-46.2
4,O=C(O)c1ncn(Cc2ccccc2)c1C(=O)O,14.3
5,Oc1cccc(NC(=S)N=Nc2c(O)[nH]c3ccc(Br)cc23)c1,8.73
6,COc1ccc(-n2nc(C)c3sc(C)nc3c2=O)cc1,8.78
7,c1cncc(-c2noc(CC3CCCCC3)n2)c1,-9.93
8,Cc1ccc(C(=O)O)cc1-c1ccc(/C=C2\SC(=O)N(CC(=O)Nc3ccc4c(c3)OCO4)C2=O)o1,-0.866
9,Cc1ccc2[nH]c(=O)c(CN3CCCCC3)c(-c3ccccc3)c2c1,-53.6
10,NC(=O)C1CCN(C(=O)C2CC(=O)N(c3ccc(F)cc3)C2)CC1 (stereo not shown),13.7
11,Cc1cc(C(=O)NP(=O)(N2CCOCC2)N2CCOCC2)c(C)n1-c1ccc(Br)cc1,7.94
12,CN(Cc1ccon1)Cc1cn[nH]c1-c1ccc(-c2ccccc2)cc1,-10.4
13,Cc1ccccc1NC(=S)N(Cc1ccco1)C(C)c1cccs1 (stereo not shown),-17.6
14,Cc1cc(C)nc(N(C#N)Cc2ccccc2Cl)n1,4.48
15,CN(Cc1c(F)cccc1Cl)C(=O)CCc1c[nH]c2ccccc12,-4.53
16,O=C1CC(c2ccccc2)n2nc(NS(=O)(=O)c3ccccc3)nc2N1 (stereo not shown),-8.25
17,Cc1ccc(NC(=O)CNC(=O)OCc2ccccc2)cc1C,5.75
18,COc1ccc(CC(=O)Nc2cccc(C(C)=O)c2)cc1S(=O)(=O)N1CCOCC1,11.4
19,CSCC(=O)N1CCC(n2nccc2NC(=O)CCCc2ccccc2)CC1,-17.6
20,CC1(C)Cc2ccccc2C(=NC(Cc2ccccc2)C(=O)O)N1 (stereo not shown),10
21,CCCn1nc(NS(=O)(=O)c2ccccc2[N+](=O)[O-])c2cc3ccccc3nc21,-26.5
22,CCC1(c2ccccc2)NC(=S)N(c2cccc(C)c2C)N1 (stereo not shown),10.5
23,Cn1cc(C=C2C(=O)OC3(CCCCC3)OC2=O)c2ccccc21,9.19
24,C=CCNC(=O)c1c(CSc2ccc(Cl)cc2)noc1C(=O)NCc1ccccc1,1.59
25,O=S(=O)(c1ccc(Cl)cc1)N1CCCC(C(F)(F)F)C1 (stereo not shown),13.1
26,CCOc1ccc(NC(=O)c2ccc(Br)o2)c([N+](=O)[O-])c1,5.5
27,CC1CCCC(NC(=O)COC(=O)CN2C(=O)C3CCCCC3C2=O)C1C (stereo not shown),10.3
28,COCCN(C(=O)Cn1c(C(F)(F)F)nc2ccccc21)c1c(N)n(Cc2ccccc2)c(=O)[nH]c1=O,7.84

row,SMILES,"hERG current change (%, negative = inhibition) at 10uM [%]"
1,Nn1c(Cc2cccc3ccccc23)nnc1SCCOc1ccc(F)cc1,-17.5
2,O=C(c1cccs1)N1CCN(c2cc(Cl)ccc2Cl)CC1,-33.8
3,CCOc1ccccc1-c1cc(C(=O)Nc2ccc(C(=O)O)cc2)c2ccccc2n1,28.7
4,Nc1nc(SCC(=O)Nc2ccccc2)[nH]c(=O)c1NC(=O)c1cccs1,3
5,CCOC(=O)c1cnc2ccc(C)cn2c1=O,-9.45
6,O=C(Nc1ccc(F)cc1F)Nc1sccc1-c1nc2ccccc2s1,15.1
7,COc1ccc(C(=O)COC(=O)CCN2C(=O)C3C4C=CC(C5CC45)C3C2=O)cc1 (stereo not shown),-11.1
8,Cc1cc(COC(=O)C2N3C(=O)[C@@H](NC(=O)COc4ccccc4)[C@H]3SC2(C)C)on1 (stereo partly shown),-56.2
9,N/C(=N\c1nc2c(c(=O)[nH]1)CCC2)Nc1cccc(Cl)c1,-2.92
10,CC(=O)Nc1cc(NC(=O)CCCC(=O)O)ccc1Cl,3.55
11,COc1cc(C)c(NC(=S)Nc2ccc(C)c(Cl)c2)cc1OC,-2.77
12,O=C(/C=C/c1ccc(Cl)cc1Cl)N1CCc2ccccc21,-1.39
13,CN(C)c1ccc(/C=C(/C#N)C(=O)NCc2ccccc2)o1,11.5
14,COC(CN(C)S(=O)(=O)c1cc2c3c(c1)CCN3C(=O)CC2)OC,21.7
15,COc1ccc(CN2CCNC(=O)C2CC(=O)NCCc2nc(C)c3c(n2)CCC3)cc1C (stereo not shown),32.8
16,O=[N+]([O-])c1cccc(-c2nc(-c3ccccc3)c(-c3cccs3)[nH]2)c1,8.11
17,O=C(CCc1nnc(C2CCCCC2)o1)N1CCN(Cc2ccccc2)CC1,5.53
18,Cn1nc(C(F)(F)F)c(CNC(=O)C(C)(C)CCl)c1N1CCOCC1,4.09
19,CC(C)CN(C(=O)COC(=O)c1cccnc1Cl)c1c(N)n(Cc2ccccc2)c(=O)[nH]c1=O,4.02
20,O=C(CSc1nc2ccc(Nc3nc(N4CCOCC4)nc(N4CCOCC4)n3)cc2s1)N1CCOCC1,-16.2
21,COc1ccc(Cl)c2sc(N(CCN(C)C)C(=O)c3ccc4c(c3)OCCO4)nc12.Cl,-29.2
22,COc1cc(NC(=O)C/C(C)=N/NC(=O)C(OC)c2ccccc2)c(OC)cc1Cl (stereo not shown),-9.34
23,O=C(O)c1ccc(COc2cccc(CO)c2)cc1,11.3
24,CCOc1cc(/C=C2/C(=N)N3C(=NC2=O)SN=C3S(C)(=O)=O)ccc1OS(=O)(=O)c1ccccc1,20.7
25,COc1cccc(-c2cc(C(=O)Nc3cccc(O)c3)no2)c1,10.3
26,CCOC(=O)c1c(-c2ccco2)csc1NC(=O)COC(=O)c1cnccn1,8.4
27,C=CCc1cc(/C=N/n2cnnc2)cc(OCC)c1O,6.82
